Several values for one entry are separate records, joined by “and”; a condition that tells them apart may be missing. Equal values may be shown once. Screen size: about 370,000 compounds; about 150 (0.041%) were called active. This list was built around the results that the source calls inconclusive (neither active nor inactive); the mix of calls is not that of the screen. The call rests on the fitted dose curve; in most records, active means well fitted inhibition curve with a large enough effect; inconclusive means small, poorly fitted or top-dose-only effect; inactive means flat fitted curve, though single readings scatter. Where the call is inconclusive, the potency comes from a doubtful curve fit.
Target: Beta-lactamase (Escherichia coli (strain K12)) (UniProt P00811)
Experiment: qHTS Inhibitors of AmpC Beta-Lactamase (assay with detergent); further: nearly all actives have a fitted effect of over 25% in size;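 on activity change, negative = inhibition: 0% = no-compound wells and -100% = no-enzyme wells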
Settings: AmpC hydrolysis of nitrocefin, absorbance 480 nm, 0.01% Triton; activity change, negative = inhibition: at 114 µM (top of the series)
Outline: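 20 mM phosphate pH 7.0 + 0.01% (detergent screen) or 0.0001% Triton X-100; 5.3 nM AmpC reagent; cpd preinc 15 min RT; nitrocefin (800 uM stock) to start; A480 q20 s × 4 min; Activity was normalised to no-enzyme and no-compound control wells.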
Potency means the concentration at half of the fitted maximal effect; tags describe the fitted curve by direction and shape.

Chain of UniProt P00811 (P00811 whole entry, looked up): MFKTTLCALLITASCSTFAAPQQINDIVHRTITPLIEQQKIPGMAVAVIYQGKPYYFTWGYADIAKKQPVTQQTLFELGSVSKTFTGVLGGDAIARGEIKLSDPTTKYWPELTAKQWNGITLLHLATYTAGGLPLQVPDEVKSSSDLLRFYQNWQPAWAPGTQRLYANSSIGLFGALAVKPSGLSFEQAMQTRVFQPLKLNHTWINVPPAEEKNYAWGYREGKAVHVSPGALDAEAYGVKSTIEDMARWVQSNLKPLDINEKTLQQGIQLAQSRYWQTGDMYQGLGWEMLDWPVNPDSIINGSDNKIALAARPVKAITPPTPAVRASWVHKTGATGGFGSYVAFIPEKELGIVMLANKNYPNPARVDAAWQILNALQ

Compound | Potency | activity change, negative = inhibition
Cc1ccc(NC(=O)CN(C)CC(=O)Nc2ccc(N3CCOCC3)cc2)c([N+](=O)[O-])c1 | inconclusive: 50.1 µM [inhibitor, full curve, poor fit] | –
COc1ccc(-n2cnc3c(cnn3CCC#N)c2=N)cc1 | – | inactive: -11.2%
CCOc1ccc(C(=O)N(Cc2ccc(OC)cc2)Cc2cc3cc(OC)ccc3[nH]c2=O)cc1 | inconclusive: 25.1 µM [inhibitor, single point] | –
COc1ccccc1N1CCN(C(=O)c2cc(-c3ccccc3O)on2)CC1 | inconclusive: 1.41 µM [inhibitor, full curve, poor fit] | –
Cn1c(=O)c2c(SCC(=O)c3ccccc3)nc(C3CC3)nc2n(C)c1=O | inconclusive: 0.562 µM [inhibitor, full curve, poor fit] | –
CC(=O)OCc1cc2cc(C)ccc2[nH]c1=O | inconclusive: 0.708 µM [inhibitor, full curve, poor fit] | –
Nc1nc(-c2ccccc2)nc2sc3c(c12)CCCC3 | – | inactive: -8.22%
CCOC(=O)c1c(NC(=S)N2CCN(C)CC2)sc(C)c1-c1ccccc1 | inconclusive: 39.8 µM [inhibitor, partial curve] | –
Cc1ccc(S(=O)(=O)N(CC(=O)O)Cc2ccccc2)cc1 | inconclusive: 28.2 µM [inhibitor, full curve, poor fit] | –
Cc1ccn2c(=O)c(C(=O)NC(C)c3ccccc3)c(O)nc2c1 (stereo not given) | – | inactive: 4.02%
Cc1ccnc(NC(=O)C23CC4CC(CC(C4)C2)C3)c1 | – | inactive: -11.1%
Nc1c(Cl)cc(C2=NCCn3nc4cc([N+](=O)[O-])ccc4c32)cc1Cl | – | inactive: -1.45%
CCOc1ccc(N(C)C(CNS(=O)(=O)c2ccccc2)c2ccccc2)cc1 (stereo not given) | – | inactive: 25.2%
O=C(O)c1cc(NS(=O)(=O)c2ccc(NCc3ccccc3)c([N+](=O)[O-])c2)cc(C(=O)O)c1 | inconclusive: 0.631 µM [inhibitor, full curve, poor fit] | –
O=C(NC1=NCCS1)C1Cc2ccccc2CN1C(=O)c1ccccc1 (stereo not given) | inconclusive: 3.55 µM [inhibitor, full curve, poor fit] | –
CSc1nc2c(c(=O)[nH]1)C(c1ccc(C(F)(F)F)cc1)CC(=O)N2 (stereo not given) | inconclusive: 8.91 µM [inhibitor, full curve, poor fit] | –
CC1O[C@@H](O[C@H](C)CC[C@@H](C)O)C(O)C[C@H]1O (stereo not given in full) | inconclusive: 0.631 µM [inhibitor, full curve, poor fit] | –
O=C(Nc1ccc(-c2cn3ccccc3n2)cc1)c1ccc(Cl)cc1 | inconclusive: 35.5 µM [inhibitor, partial curve, poor fit] | –
c1ccc2c(c1)OCCOCCOCCO2 | inconclusive: 7.94 µM [inhibitor, full curve, poor fit] | –
CCOc1cc(S(=O)(=O)n2c(C)nc3ccccc32)ccc1F | – | inactive: -13.6%
Cc1ccc(C(=O)Nc2ccc(F)cc2)o1 | inconclusive: 28.2 µM [inhibitor, partial curve] | –
Cc1cccc(-c2noc(CN(C)C(=O)c3ccoc3C)n2)c1 | – | inactive: -2.29%
COc1ccc(C(=O)NCc2cn3ccsc3n2)cc1OC | inconclusive: 28.2 µM [inhibitor, partial curve, poor fit] | –

Compound | Potency | activity change, negative = inhibition
CCOC(=O)c1[nH]c2c(c1-c1ccccc1)C(=O)CC(c1ccc(OC)c(OC)c1)C2 (stereo not given) | inconclusive: 31.6 µM [inhibitor, full curve, poor fit] | –
O=c1[nH]c(=O)n(CCO)c2nnn(Cc3ccccc3)c12 | inconclusive: 7.94 µM [inhibitor, full curve, poor fit] | –
CCOc1cccc(C2CC(=O)Nc3cc(OC)c(OC)cc32)c1 (stereo not given) | inconclusive: 100 µM [inhibitor, single point] | –
CC1(CCc2ccccc2)NC(=O)N(Cc2cc([N+](=O)[O-])cc3c2OCOC3)C1=O (stereo not given) | inconclusive: 100 µM [inhibitor, single point] | –
CCCCn1c(C(C)NC(=O)c2ccccc2)nc2ccccc21 (stereo not given) | – | inactive: -9.17%
CCc1ccc2nc(SCC(=O)NCC3CCCO3)c(C#N)cc2c1 (stereo not given) | – | inactive: 2.61%
Cc1ccc2oc(=O)n(CC(=O)O)c2c1 | inconclusive: 3.98 µM [inhibitor, full curve] | –
CCN(CC)Cc1c(C(=O)N/N=C/c2ccncc2)nnn1-c1nonc1N | inconclusive: 15.8 µM [inhibitor, full curve] | –
CC(C)CCn1c(SCCc2ccccc2)nc2c1c(=O)[nH]c(=O)n2C | inconclusive: 4.47 µM [inhibitor, full curve] | –
COc1ccc(C(=O)NCc2cc(C)nc3ccccc23)cc1 | – | inactive: 3.19%
CCCCC1CCC(/C(N)=N/O)CC1 (stereo not given) | inconclusive: 0.562 µM [inhibitor, full curve, poor fit] | –
Cc1cc(/C=N/Nc2ncnc(N)c2[N+](=O)[O-])c(C)n1-c1ccccc1 | – | inactive: -8.69%
COc1ccc(NC(=O)CCn2c(=O)c3cccn3c3ccccc32)c(OC)c1 | inactive and inconclusive: 3.55 µM [inhibitor, single point] | –
O=c1c(CN2CCN(c3ccccn3)CC2)coc2ccccc12 | – | inactive: 0.177%
COc1ccc(-c2nc(-c3ccncc3)no2)cc1 | – | inactive: 2.99%
O=C(c1ccccc1)C(C(=O)N1CCc2ccccc2C1)n1ccccc1=O (stereo not given) | inconclusive: 5.01 µM [inhibitor, full curve, poor fit] | –
Cc1cccc(C)c1NC(=O)C(c1ccccc1)N1CCOCC1 (stereo not given) | inconclusive: 50.1 µM [inhibitor, partial curve, poor fit] | –
Cc1nc2ccccc2c2nc3ccccc3n12 | inconclusive: 79.4 µM [inhibitor, partial curve] | –
O=C(CCc1nc2ccccc2[nH]1)Nc1ccc2c(c1)OCCO2 | inconclusive: 100 µM [inhibitor, partial curve, poor fit] | –
Cc1ccc(Sc2c(C)[nH]n(C(C)(C)C)c2=O)cc1 | inconclusive: 112 µM [inhibitor, partial curve, poor fit] | –
c1ccc(-c2csc(Nc3cccnc3)n2)nc1 | – | inactive: -6.37%
O=C(Nc1ccc(F)cc1F)c1cc2nc(-c3ccco3)cc(C(F)(F)Cl)n2n1 | – | inactive: -6.13%

Reference: PubChem BioAssay AID485294 (National Center for Advancing Translational Sciences (NCATS), 2010)
